Screen size: about 150,000 compounds; about 540 (0.36%) showed an effect of 50% or more. This is one part of the list.

The subject of this experiment is Plasmodium falciparum. Nature of the experiment: Primary screen in NF54 nanoGlo assay, in single point, at 2uM, 72h; a lower Z score goes with more inhibition. It is filed as functional, Erythrocyte. Particulars: timepoint 72 hour.
In the case of `O=C(NCCc1ccccn1)[C@@H]1CCN(c2ccc(Br)cc2F)C1=O`, the “% Inhibition” value was -9% and the Z score came to 1.08.

On to `Cc1cccc(Oc2nc3ccccc3n3c(=O)n(CC(=O)NCc4ccc(Cl)cc4)nc23)c1C`, for which the “% Inhibition” value amounted to 32% and the Z score is reported as -4.6.

As to `CC(C)N(C)S(=O)(=O)NC[C@H]1CCCO1`, the “% Inhibition” value is recorded as 5% and the Z score is -0.55.

For the molecule `O=C(N[C@H]1CCN(c2ccc(-c3ccccc3F)nn2)C1)c1ccc2c(c1)OCO2`, the “% Inhibition” value is on record as -26% and the Z score is 5.03.

For the molecule `O=C(CN1CCN(c2cccc(Cl)c2)C1=O)NCc1cccnc1`, the “% Inhibition” value is on record as 2% and the Z score is -0.29.

For `Cc1nc(C)c(CNC(=O)c2cc(C)c(Br)cc2C)o1`, the “% Inhibition” value is listed as -4% and the Z score turned out to be 0.5.

On to `C=CCN(CC1CCCCC1)C(=O)[C@H](C)N`, for which the “% Inhibition” value amounted to 2% and the Z score was -0.23.

As for `Clc1ccccc1-c1cc(COc2ccc3ccccc3c2)no1`, the “% Inhibition” value was found to be 1% and the Z score is -0.1.

Regarding `Cc1cc(OCC(=O)Nc2ccccc2)nc2c1c(-c1ccccc1)nn2-c1ccccc1`, the “% Inhibition” value worked out at 0% and the Z score was -0.02.

As to `C[C@@H](C(=O)N(C)Cc1cccc(F)c1)N(C)Cc1ccc2c(c1)OCO2`, the “% Inhibition” value is recorded as -12% and the Z score amounted to 1.08.

In the case of `CC1CCC(NC(=O)CN[C@@H](CO)C2CC2)CC1` (stereo partly specified), the “% Inhibition” value amounted to 6% and the Z score is listed as -1.23.

As to `Cc1nccn1CCCC(=O)NC(c1cnn(C)c1)[C@H]1C[C@@H](O)C1` (stereo partly specified), the “% Inhibition” value is -7% and the Z score is listed as 1.45.

Consider `CC1CCN(S(=O)(=O)c2ccc3[nH]cc(C(=O)NCc4ccco4)c(=O)c3c2)CC1`, for which the “% Inhibition” value is on record as 2% and the Z score was -0.19.

For the molecule `CC(C)(C)c1cc(NC(=O)c2ccc(F)cc2Cl)n([C@H]2CCS(=O)(=O)C2)n1`, the “% Inhibition” value is listed as -12% and the Z score came to 1.55.

As for `Cc1cc([C@]2(C(F)(F)F)NCCNC2=O)cc(C)c1O`, the “% Inhibition” value is on record as -16% and the Z score was 2.06.

For the molecule `CCn1cc(CNC(=O)C2=NN(c3ccccc3)[C@H](C(N)=O)C2)cn1`, the “% Inhibition” value is -21% and the Z score is on record as 1.9.

Turning to `CC(C)(C)OC(=O)NC1CCN(C(=O)C[C@@H](Cn2cnnn2)c2ccc(Cl)cc2)CC1`, the “% Inhibition” value is -6% and the Z score stood at 0.84.

Regarding `CN(C)S(=O)(=O)CC(=O)N1C[C@H](c2ccccc2)c2ccccc21`, the “% Inhibition” value is on record as -17% and the Z score is recorded as 1.55.

With `COC1(C)CCN(C(=O)c2ccon2)CC1`, the “% Inhibition” value is listed as -4% and the Z score turned out to be 0.52.

With `Cc1nc(NC(=O)[C@@H](C)C(F)(F)F)n[nH]1`, the “% Inhibition” value was -6% and the Z score is reported as 1.28.

Consider `CS(=O)(=O)NCCN1CCC(F)(F)CC1`, for which the “% Inhibition” value is listed as 5% and the Z score is on record as -0.73.

On to `Cc1ccc(C2(C)CC(=O)N(CC3CCNC(=O)CC3)C2=O)cc1` (stereo unspecified), for which the “% Inhibition” value is given as 10% and the Z score is reported as -1.32.

Consider `COc1ccc(CNC(=O)c2noc3c2C[C@@H](C)CC3)cc1`, for which the “% Inhibition” value is on record as 1% and the Z score is given as -0.13.

Take `CCO[C@H]1CCCN(C(=O)Cn2ncc(=O)c3ccccc32)C1`: the “% Inhibition” value is reported as -2% and the Z score is listed as 0.3.

`CCc1nocc1CN(C)C(=O)c1ccc2[nH]c3c(c2c1)CCCC3`: the “% Inhibition” value is 9% and the Z score is reported as -1.13.

For the molecule `Cc1nc(CN[C@H]2CC(=O)N(c3ccccc3)C2)cs1`, the “% Inhibition” value is given as -18% and the Z score was 3.66.

`Cc1cccc2[nH]c([C@H]3CCCN(C(=O)CCc4cccnc4)C3)nc12`: the “% Inhibition” value is on record as -14% and the Z score is reported as 1.72.

As for `Cn1c(=O)c2c(ncn2CC(=O)OCc2ccccc2C#N)n(C)c1=O`, the “% Inhibition” value is given as 1% and the Z score is -0.08.

Turning to `Cc1cc(C)nc(-n2nc(C)c(CCc3ccccc3)c2O)n1`, the “% Inhibition” value is on record as 32% and the Z score is on record as -3.67.

For `NCc1nc(C(=O)N(CCc2ccc(F)cc2)C2CCCC2)cs1`, the “% Inhibition” value was -14% and the Z score was found to be 1.54.

On to `CC1CCC(NC(=O)CCOCC(F)F)CC1C` (stereo unspecified), for which the “% Inhibition” value amounted to 3% and the Z score is reported as -0.3.

For the molecule `CC(C)NC(=O)OC1CN(C(=O)[C@@H]2CCCc3nccn32)C1`, the “% Inhibition” value was 0% and the Z score is 0.08.

As for `Cc1ccccc1CC(=O)N1CCC[C@@](F)(C(=O)NCC2CC2)C1`, the “% Inhibition” value was -22% and the Z score is given as 1.92.

Take `C[C@@H](C(=O)NCCS(=O)(=O)N(C)C)n1cc(Cl)cn1`: the “% Inhibition” value is recorded as -7% and the Z score is recorded as 1.13.

In the case of `C[C@H]1CN(Cc2cn(C)c(=O)n(C)c2=O)c2ccccc21`, the “% Inhibition” value is given as -1% and the Z score was found to be 0.18.

Regarding `CCn1nc(C)cc1C(=O)Nc1ccccc1-n1ccc(C(N)=O)n1`, the “% Inhibition” value is on record as -3% and the Z score was found to be 0.5.

Regarding `CCCc1cc(C(=O)N[C@H](c2ncccc2C)C2CC2)[nH]n1`, the “% Inhibition” value turned out to be 3% and the Z score is reported as -0.51.

`Cn1c(CS(=O)(=O)c2ccccc2)c(C#N)c2ccccc21`: the “% Inhibition” value is -1% and the Z score amounted to 0.26.

Take `CN(Cc1cccnc1)c1nc2c(c(=O)[nH]1)Cc1ccccc1OC2`: the “% Inhibition” value was 1% and the Z score is listed as -0.19.

Consider `CCc1ccc(O)c(C(=O)N2CCC(C(=O)Nc3nc(C)cs3)CC2)c1`, for which the “% Inhibition” value is given as -9% and the Z score stood at 0.85.

For `Cc1c(CN(C)C(=O)c2ccc(-c3ccc4c(c3)OCC4)cc2)cnn1C`, the “% Inhibition” value is listed as -20% and the Z score is 2.12.

For the molecule `CC1(c2nnc(-c3ccc4ccccc4n3)o2)CCOCC1`, the “% Inhibition” value is on record as -4% and the Z score stood at 0.63.

In the case of `COc1ccccc1C1=NS(=O)(=O)N(C)C(C(=O)N2C(C)CCCC2C)=C1` (stereo unspecified), the “% Inhibition” value is listed as -5% and the Z score was determined as 0.99.

The term % Inhibition denotes the drop in the measured response relative to a control, in per cent.

Values taken from ChEMBL document CHEMBL4888484, “Replenishing the malaria drug discovery pipeline: Screening and hit evaluation of the MMV Hit Generation Library 1 (HGL1) against asexual blood stage Plasmodium falciparum ,using a nano luciferase reporter read-out” (2022).
